Data from publication PMC5386588.
Read-outs that look alike come from different tables or passages of the source. These are yes or no findings as the source states them, for the method shown. For part of these data: In cells and extracts the contact can be indirect. Some results given as binding are weak or reduced against the parent protein; the word gives no strength.

Sequences of proteins named here, by UniProt entry; tags and fusion partners are left off. A change or cut given only in a name is not applied to a line headed by its entry. Residues count along the entry.
UniProt Q9Y5X4: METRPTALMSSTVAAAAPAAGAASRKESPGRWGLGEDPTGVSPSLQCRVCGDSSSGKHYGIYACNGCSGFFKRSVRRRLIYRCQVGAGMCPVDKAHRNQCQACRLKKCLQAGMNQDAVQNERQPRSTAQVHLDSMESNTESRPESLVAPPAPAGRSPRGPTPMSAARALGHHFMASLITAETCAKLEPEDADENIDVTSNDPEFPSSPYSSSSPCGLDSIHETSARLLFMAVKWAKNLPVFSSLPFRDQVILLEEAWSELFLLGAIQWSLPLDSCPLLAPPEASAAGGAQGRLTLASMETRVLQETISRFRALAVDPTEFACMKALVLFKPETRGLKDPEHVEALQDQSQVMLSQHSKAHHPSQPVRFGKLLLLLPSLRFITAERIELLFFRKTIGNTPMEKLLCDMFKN
LexA-PNR LBD 192-399 mutant lacking the AF2 helix (ΔH12): residues 192-399 of Q9Y5X4
UniProt P37231: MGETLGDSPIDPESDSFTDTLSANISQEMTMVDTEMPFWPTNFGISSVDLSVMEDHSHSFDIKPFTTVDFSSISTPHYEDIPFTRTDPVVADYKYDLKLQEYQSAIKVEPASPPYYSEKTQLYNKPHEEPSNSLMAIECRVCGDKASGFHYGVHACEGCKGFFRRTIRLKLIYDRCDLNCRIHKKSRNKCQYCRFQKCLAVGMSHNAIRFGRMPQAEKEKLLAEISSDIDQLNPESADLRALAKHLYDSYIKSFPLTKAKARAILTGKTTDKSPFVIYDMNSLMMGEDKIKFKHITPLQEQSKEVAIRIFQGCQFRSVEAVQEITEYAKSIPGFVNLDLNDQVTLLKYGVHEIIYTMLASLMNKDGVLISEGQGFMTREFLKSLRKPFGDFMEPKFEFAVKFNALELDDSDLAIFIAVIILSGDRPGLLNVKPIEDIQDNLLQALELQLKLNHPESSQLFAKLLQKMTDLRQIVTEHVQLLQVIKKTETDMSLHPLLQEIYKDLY
UniProt Q9Y466: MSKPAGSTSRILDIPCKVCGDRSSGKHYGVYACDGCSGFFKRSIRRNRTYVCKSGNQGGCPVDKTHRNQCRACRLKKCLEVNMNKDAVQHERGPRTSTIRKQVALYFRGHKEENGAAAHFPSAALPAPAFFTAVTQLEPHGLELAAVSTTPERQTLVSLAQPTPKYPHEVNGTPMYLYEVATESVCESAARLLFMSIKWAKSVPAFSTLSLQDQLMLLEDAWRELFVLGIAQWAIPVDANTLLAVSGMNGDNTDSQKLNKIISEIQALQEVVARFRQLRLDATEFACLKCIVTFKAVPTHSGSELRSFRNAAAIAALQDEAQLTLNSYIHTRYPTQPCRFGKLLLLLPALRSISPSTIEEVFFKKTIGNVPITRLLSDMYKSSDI

Columns and labels:
[1] = biological target: PNR hinge-LBD (131–410) (human) (UniProt Q9Y5X4); assay: two-hybrid; S. cerevisiae L40 co-expressing a LexA-DBD fusion and a VP16 AAD fusion; β-galactosidase activity of cell-free extracts, three clones; result told without exogenous ligand or alike with and without it (rosiglitazone)
[2] = biological target: endogenous PNR (human (endogenous in adult human retinal tissue and MDA-MB-468)) (UniProt Q9Y5X4); assay: co-IP; endogenous proteins of the breast cancer cell line MDA-MB-468 (Supplementary Figure S4)
[3] = biological target: endogenous PNR (human (endogenous in adult human retinal tissue and MDA-MB-468)) (UniProt Q9Y5X4); assay: co-IP; cell-free extract of adult human retinal tissue; PNR immunoprecipitated, western blots for PPARγ and TLX
[4] = biological target: LexA-PNR LBD 192-399 mutant lacking the AF2 helix (ΔH12) (human) (UniProt Q9Y5X4); assay: two-hybrid; S. cerevisiae L40 co-expressing a LexA-DBD fusion and a VP16 AAD fusion; β-galactosidase activity of cell-free extracts, three clones; result told without exogenous ligand or alike with and without it (rosiglitazone)
[5] = biological target: PNR hinge-LBD (131–410) (human) (UniProt Q9Y5X4); assay: as above; remark: listed apart in the source

Q: With “PNR hinge-LBD (131–410) (from UniProt Q9Y5X4 131-410) (domain or fragment)” as the molecule, how does the binding [1] read?
A: The binding was “binds”.

Q: With “endogenous PPARγ (from UniProt P37231 1-505)” as the molecule, how does the binding [2] read?
A: Its binding is “binds”.

Q: And the binding [3]?
A: Its binding is “binds”.

Q: Which binding [3] does the source give for “endogenous TLX (from UniProt Q9Y466 1-385)” here?
A: Its binding is “no binding”.

B1: AAD-BCL11A 1-376 containing the RID motif (domain or fragment, UniProt Q9H165 1-376)
chain: MSRRKQGKPQHLSKREFSPEPLEAILTDDEPDHGPLGAPEGDHDLLTCGQCQMNFPLGDILIFIEHKRKQCNGSLCLEKAVDKPPSPSPIEMKKASNPVEVGIQVTPEDDDCLSTSSRGICPKQEHIADKLLHWRGLSSPRSAHGALIPTPGMSAEYAPQGICKDEPSSYTCTTCKQPFTSAWFLLQHAQNTHGLRIYLESEHGSPLTPRVGIPSGLGAECPSQPPLHGIHIADNNPFNLLRIPGSVSREASGLAEGRFPPTPPLFSPPPRHHLDPHRIERLGAEEMALATHHPSAFDRVLRLNPMAMEPPAMDFSRRLRELAGNTSSPPLSPGRPSPMQRLLQPFQPGSKPPFLATPPLPPLQSAPPPSQPPVKS
Q: Which binding [4] does the source give for B1 here?
A: Its binding is “no binding”.

Q: And the binding [5]?
A: The binding was “binds”.
